Experimental data reported in paper PMC9574860, “Chemical Toolkit for PARK7: Potent, Selective, and High-Throughput” (Journal of Medicinal Chemistry, 2022).
Out of some 7,900 compounds screened, about 400 (5.1%) showed an effect of 50% or more. This is one part of the list.

The compounds below were run against Parkinson's disease protein 7 (PARK7/DJ1) (human, UniProt Q99497) (assay: primary screen, percent inhibition; read as competition with a fluorescent probe by fluorescence polarization; higher = more effect of the substance). Conditions: 100 µM.
Chain of Parkinson's disease protein 7 (PARK7/DJ1) (Q99497 whole entry, looked up, the tested form may be a part): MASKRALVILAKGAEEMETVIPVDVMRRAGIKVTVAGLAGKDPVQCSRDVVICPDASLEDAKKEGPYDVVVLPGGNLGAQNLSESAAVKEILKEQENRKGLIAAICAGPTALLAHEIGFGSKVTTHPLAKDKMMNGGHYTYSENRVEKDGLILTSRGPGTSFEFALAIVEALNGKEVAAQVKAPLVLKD
How it was run: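 Fluorescence-polarization probe displacement (JYQ-107, 20 nM final, 2 h) after 2 h preincubation of PARK7 (0.2 μM final) with each fragment at 100 μM final. Read-out ex/em 480/520 nm; remaining activity derived from FP signal loss relative to reference controls.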
Cc1ccnc(NC(=O)CCN2C(=O)CCC2=O)c1 showed an Inhibition % of 2.55%.
For CN(C)C=C(C#N)c1ccccn1, the Inhibition % was 19.1%.
Work on Cc1nn(C)c(Cl)c1C=CC(=O)N1CCOCC1 yielded an Inhibition % of 21.5%.
With N#Cc1nc(Cl)ccc1F the Inhibition % was 8.62%.
Compound C=CC(=O)N1CCCCC1c1ccccc1 (centres unmarked) has an Inhibition % of 12.3%.
Work on COc1ccc(CN(C)C(=O)CCl)cc1F yielded an Inhibition % of 58.3%.
In the case of CC1(C)OB(c2ccc(S(C)(=O)=O)cc2)OC1(C)C, the Inhibition % is reported as 3.95%.
C=CC(=O)N1CCN(CC2CCOCC2)CC1 gave an Inhibition % of 12.9%.
In the case of C=CC(=O)N1CCC(Cc2cccnc2)CC1, the Inhibition % is reported as 11%.
O=C(CCl)c1ccc(C(F)(F)F)cc1 gave an Inhibition % of 12%.
With C=CC(=O)N1CCOc2ccc(S(C)(=O)=O)cc21 the Inhibition % was 13.6%.
For C=CC(=O)N1CC(S(=O)(=O)N2CCc3ccccc32)C1, the Inhibition % was 3.57%.
Compound CC(C)(C)OC(=O)N1CCC(B2OC(C)(C)C(C)(C)O2)CC1 has an Inhibition % of 1.74%.
In the case of O=C(CCl)NCc1cc([N+](=O)[O-])ccc1O, the Inhibition % is reported as 18.7%.
O=c1c2ccccc2nc(S)n1CCCN1CCOCC1 was tested, and the Inhibition % was 8.44%.
Work on O=C(CCCl)Nc1cccc(F)c1 yielded an Inhibition % of 5.31%.
Nc1ccccc1OC1CC(=O)N1 (centres unmarked) was tested, and the Inhibition % was 8.49%.
CC1CC(N)CCN1C(=O)C=CC1CCOCC1 (centres unmarked) gave an Inhibition % of 14.8%.
O=C(CCl)NCCOc1ccc2c(c1)OCO2 showed an Inhibition % of 14%.
With Cc1cc(C)c(-c2csc(NC(=O)CCl)n2)cc1C the Inhibition % was 5.92%.
Work on Cc1ccc(C)c(NC(=O)CN2CCSC2=O)c1 yielded an Inhibition % of 4.62%.
C=CC(=O)N1Cc2sccc2CC1(C)C showed an Inhibition % of 14.7%.
C=CC(=O)N(CC)Cc1ccc2ccccc2n1 gave an Inhibition % of 10.2%.
For O=C(CCl)NC(=O)Nc1ccc2c(c1)OCO2, the Inhibition % was 1.46%.
Compound C=CC(=O)NC(NC(=O)C=C)c1ccccc1 has an Inhibition % of 11.8%.
Work on COC(=O)c1cc(B2OC(C)(C)C(C)(C)O2)c(N)cc1OC yielded an Inhibition % of 7.25%.
Compound CC1(C)CC(NC(=O)c2ccc(S(=O)(=O)F)cc2)CCO1 (centres unmarked) has an Inhibition % of 14.4%.
For C=CC(=O)NC(C)c1c(C)nn(CC(F)(F)F)c1C (centres unmarked), the Inhibition % was 4.48%.
For C=CC(=O)Nc1cccc(OC)c1, the Inhibition % was 6.69%.
For Cl.O=C(CCl)Nc1nc2ccccc2s1, the Inhibition % was 16.8%.
N#Cc1nccn1Cc1cccc(F)c1F showed an Inhibition % of 4.63%.
With C=CC(=O)N(C)Cc1nc(C(F)(F)F)cs1 the Inhibition % was 7.08%.
Work on C=CCNC(=O)C(C#N)=Cc1ccc(N(C)C)cc1 yielded an Inhibition % of 2.49%.
O=C1CC(Cc2ccccc2)N1 (centres unmarked) gave an Inhibition % of 3.33%.
CC1CC(N2CC=C(c3ccc(F)cc3)CC2)C(=O)O1 (centres unmarked) gave an Inhibition % of 5.18%.
With Cc1ccccc1CNC(=O)CCl the Inhibition % was 5.79%.
With CC1CNCCN1C(=O)C=Cc1cccnc1 (centres unmarked) the Inhibition % was 10%.
C=CC(=O)N1CCCC1c1cnn(C)c1 (centres unmarked) gave an Inhibition % of 10%.
For CCOc1ccc(C(C)C)cc1S(=O)(=O)n1ccnc1C, the Inhibition % was 9.12%.
Compound CCC(CO)n1c(S)nc2ccccc2c1=O (centres unmarked) has an Inhibition % of 6.84%.
In the case of N#Cc1ccsc1NC(=O)CN1CCSC1=O, the Inhibition % is reported as 5.08%.
For CC(C)(C)OC(=O)N1CCC=C(B2OC(C)(C)C(C)(C)O2)C1, the Inhibition % was 0.918%.
With Cc1nn(C)c(C)c1CNc1ccc(C#N)nc1 the Inhibition % was 10.1%.
In the case of CC1(C)C(=O)NC1c1ccccc1 (centres unmarked), the Inhibition % is reported as 5.46%.
Compound C=CC(=O)N1CCN(c2ccc(C(F)(F)F)cc2)CC1 has an Inhibition % of 3.27%.
Compound CC(C)NC(=O)C(C#N)=Cc1c(Cl)nc2ccccn12 has an Inhibition % of -2.18%.
Compound O=C(CCl)NNC(=O)c1cc2ccccc2[nH]1 has an Inhibition % of 1.5%.
COC(=O)Nc1ccc(S(=O)(=O)F)cc1[N+](=O)[O-] was tested, and the Inhibition % was 101%.
With Cl.O=c1[nH]nc(C2CCCNC2)o1 (centres unmarked) the Inhibition % was 5.47%.
In the case of N#CC(=CC=Cc1ccccc1)C(=O)N1CCCC1, the Inhibition % is reported as 10.9%.
In the case of Clc1cccc(CC2CO2)c1 (centres unmarked), the Inhibition % is reported as 4.72%.
N#Cc1ncn(CC(=O)N(C2CCCC2)C2CC2)n1 showed an Inhibition % of 11.3%.
Compound CC1(C)OB(c2ccc(C(F)(F)C(F)(F)F)cc2)OC1(C)C has an Inhibition % of 6.7%.
Work on CSCC(=O)N1CCN(c2oc(C)nc2C#N)CC1 yielded an Inhibition % of 8.43%.
C=CC(=O)NCC(=O)NC1CCOc2ccccc21 (centres unmarked) showed an Inhibition % of 11.3%.
C=CC(=O)N(CC)Cc1cccc2c1OCO2 showed an Inhibition % of 3.79%.
Compound C=CC(=O)N1CCC(C(=O)c2cccs2)CC1 has an Inhibition % of 6.41%.
Compound CC1CC(C)CC2(C1)NC(=O)N(CCC1OCCO1)C2=O (centres unmarked) has an Inhibition % of 2.2%.
Cc1nn(C)c(Cl)c1C1CCCN1C1CC(C)OC1=O (centres unmarked) showed an Inhibition % of 7.23%.
Work on CC1CN(C(=O)C=Cc2c(Cl)nc3ccccn23)CCO1 (centres unmarked) yielded an Inhibition % of 9.17%.
Cc1ccccc1CN1CCN(C(=O)CCl)CC1.Cl gave an Inhibition % of 8.19%.
CC(C)Cc1nc(C#N)c(N)o1 showed an Inhibition % of 2.55%.
Compound CC1(C)OB(c2cc(C(F)(F)F)n[nH]2)OC1(C)C has an Inhibition % of 5.19%.
For CC(C)Oc1cccc(CNC(=O)CCl)c1, the Inhibition % was 12.2%.
CC(C)Cc1nnc(NC(=O)CCl)s1 was tested, and the Inhibition % was 0.605%.
With CC(C)(C)C(=O)NNS(=O)(=O)c1cccc(S(=O)(=O)F)c1 the Inhibition % was 97.2%.
C=CC(=O)N(Cc1ccncc1)CC1CCCO1 (centres unmarked) was tested, and the Inhibition % was 6.75%.
C=CC(=O)N1CCCC(n2ccnn2)C1 (centres unmarked) showed an Inhibition % of 5.87%.
In the case of COc1ccc(NC(=O)c2cccnc2S)cc1OC, the Inhibition % is reported as 4.53%.
In the case of CC1(C)OB(c2ccc(F)cc2[N+](=O)[O-])OC1(C)C, the Inhibition % is reported as 3.67%.
C=CC(=O)N1CCC(CCF)CC1 gave an Inhibition % of 5.32%.
With O=S(=O)(C=Cc1ccccc1)N1CCNCC1 the Inhibition % was 9.53%.
Cc1c(C#N)c(NC(=O)CCl)n(-c2ccc(F)cc2)c1C showed an Inhibition % of 1.78%.
Compound C=CC(=O)NC1CC=CCC1 (centres unmarked) has an Inhibition % of 18.2%.
Work on O=C(CCl)N(c1ccccc1)C1CCS(=O)(=O)C1 (centres unmarked) yielded an Inhibition % of 5.5%.
N#CC(=Cc1ccc(N2CCNC(=O)C2)cc1)C(N)=O showed an Inhibition % of 8.54%.
O=C(Nc1cccc(S(=O)(=O)F)c1)C1CCCC1 showed an Inhibition % of 99.8%.
In the case of CCCn1c(C)cc(C=C(C#N)C(=O)N2CCC2)c1C, the Inhibition % is reported as 11.8%.
Compound C=CC(=O)Nc1ccc2c(c1)CCC(=O)N2CC1CC1 has an Inhibition % of 4.69%.
With O=C(c1ccccc1)C1NC1c1ccccc1 (centres unmarked) the Inhibition % was 8.66%.
CC(C)(C)CC(C)(C)NC(=O)CC1C=CS(=O)(=O)C1 (centres unmarked) gave an Inhibition % of 5.56%.
Cc1ccc(Sc2ccc(NC(=O)CCl)cc2)cc1C showed an Inhibition % of 34.5%.
In the case of CC(=O)c1ccccc1B1OC(C)(C)C(C)(C)O1, the Inhibition % is reported as 1.38%.
C=CC(=O)NCC1CCN(CC#N)CC1 showed an Inhibition % of 9.24%.
For C=CC(=O)N(C)Cc1ncc(C)c(OC)c1C, the Inhibition % was 7.33%.
In the case of Cc1cc(Cn2cnc(C#N)n2)no1, the Inhibition % is reported as 10.9%.
C=CC(=O)N1CCC(CNS(C)(=O)=O)CC1 gave an Inhibition % of 9.38%.
With C=CC(=O)Nc1cccc(CN2CCOCC2)n1 the Inhibition % was 10.8%.
With C=CCNC(=O)C(C#N)=Cc1ccc(C(=O)O)cc1 the Inhibition % was 10.8%.
Compound Cc1cn(S(=O)(=O)c2ccc(C)c(C)c2)cn1 has an Inhibition % of 8.11%.
C=CC(=O)NC1(c2ccc(OC)cc2)CC1 gave an Inhibition % of 7.62%.
C=CC(=O)N1CCC(NC(=O)c2oc(C)cc2C)CC1 gave an Inhibition % of 3.91%.
Work on C=CC(=O)N1CCOC(CN(C)c2nccn(C)c2=O)C1 (centres unmarked) yielded an Inhibition % of 16.9%.
In the case of C=CC(=O)NCc1noc2ccccc12, the Inhibition % is reported as 11.5%.
For N#Cc1ccc(C(=O)O)cn1, the Inhibition % was 5.73%.
COC1(CNC(=O)c2cccnc2S)CCOCC1 showed an Inhibition % of 9.16%.
Work on CC(C)CCNC(=O)C1CCN(C(=O)CCl)CC1 yielded an Inhibition % of 0.13%.
For C=CC(=O)NC(c1nccn1C)c1nccn1C, the Inhibition % was 22.4%.
CN(CC(=O)Nc1ncc(S(=O)(=O)F)s1)S(C)(=O)=O gave an Inhibition % of 9.17%.
Cc1nn(Cc2ccccc2)c(C)c1CNC(=O)CCl showed an Inhibition % of 15.6%.
C=CC(=O)N1CCSCC1S(C)(=O)=O (centres unmarked) gave an Inhibition % of 0.579%.
C=CC(=O)N(C)CC1CC1(C)C (centres unmarked) showed an Inhibition % of 15.4%.
In the case of Cc1csc(C(C#N)=Cc2ccc(C)o2)n1, the Inhibition % is reported as 30.7%.
For Cc1cc2cc(B3OC(C)(C)C(C)(C)O3)ccc2n1C(=O)OC(C)(C)C, the Inhibition % was 28.1%.
With O=C1CC(c2cccc(Cl)c2)=NO1 the Inhibition % was 27.7%.
CCNC(=O)C1CN(c2cccc(C#N)n2)C1 showed an Inhibition % of 7.59%.
C=CC(=O)N1CCn2cccc2C1C (centres unmarked) showed an Inhibition % of 3.82%.
NC(=O)Nc1ccc(S(=O)(=O)F)cc1 showed an Inhibition % of 18.9%.
Work on COc1ccc(C(C)(C)C)cc1S(=O)(=O)n1ccnc1C yielded an Inhibition % of 7.71%.
C=CCOc1ccc(Cl)nc1C#N showed an Inhibition % of 3.59%.
Compound C=CC(=O)N1CCNC(=O)C1c1cccs1 (centres unmarked) has an Inhibition % of 4.18%.
O=C(CCl)Nc1cc(F)cc(F)c1 was tested, and the Inhibition % was 14.6%.
For CCOc1ccc(C(C)C)cc1S(=O)(=O)n1cccn1, the Inhibition % was 2.71%.
For O=C(CCl)NCC(=O)c1ccccc1, the Inhibition % was 4.23%.
C=CC(=O)N1CCN(c2ncc(CC)s2)CC1 gave an Inhibition % of 10.2%.
Work on CC(=O)N1CCN(Cc2cccc(B3OC(C)(C)C(C)(C)O3)c2)CC1 yielded an Inhibition % of 7.71%.
ClCCc1cnoc1 showed an Inhibition % of 3.99%.
Compound COc1ccc(C=C(C#N)C(=O)NCc2ccco2)cc1 has an Inhibition % of 8.17%.
With C=CC(=O)N1CCOC(c2ccnc(N(C)C)n2)C1 (centres unmarked) the Inhibition % was 4.36%.
CN(CCc1ccccc1)c1nccnc1C#N gave an Inhibition % of 3.72%.
Work on CC1CCCCC1NC(=O)NC(=O)CCl (centres unmarked) yielded an Inhibition % of 29.4%.
Work on CC(C)c1ccc(C2CO2)cc1 (centres unmarked) yielded an Inhibition % of 4.9%.
